Results taken from paper PMC4336329 (PLoS ONE, 2015).
Among all 310,000 compounds or so, about 2,200 (0.71%) showed an effect of 50% or more. Effects have a minus sign here. The list shows a part of the results.

target: human ether-à-go-go-related gene (hERG) potassium channel (human, UniProt Q12809); experiment: primary screen, population patch clamp on CHO cells stably expressing hERG
Sequence (Q12809 whole entry, looked up): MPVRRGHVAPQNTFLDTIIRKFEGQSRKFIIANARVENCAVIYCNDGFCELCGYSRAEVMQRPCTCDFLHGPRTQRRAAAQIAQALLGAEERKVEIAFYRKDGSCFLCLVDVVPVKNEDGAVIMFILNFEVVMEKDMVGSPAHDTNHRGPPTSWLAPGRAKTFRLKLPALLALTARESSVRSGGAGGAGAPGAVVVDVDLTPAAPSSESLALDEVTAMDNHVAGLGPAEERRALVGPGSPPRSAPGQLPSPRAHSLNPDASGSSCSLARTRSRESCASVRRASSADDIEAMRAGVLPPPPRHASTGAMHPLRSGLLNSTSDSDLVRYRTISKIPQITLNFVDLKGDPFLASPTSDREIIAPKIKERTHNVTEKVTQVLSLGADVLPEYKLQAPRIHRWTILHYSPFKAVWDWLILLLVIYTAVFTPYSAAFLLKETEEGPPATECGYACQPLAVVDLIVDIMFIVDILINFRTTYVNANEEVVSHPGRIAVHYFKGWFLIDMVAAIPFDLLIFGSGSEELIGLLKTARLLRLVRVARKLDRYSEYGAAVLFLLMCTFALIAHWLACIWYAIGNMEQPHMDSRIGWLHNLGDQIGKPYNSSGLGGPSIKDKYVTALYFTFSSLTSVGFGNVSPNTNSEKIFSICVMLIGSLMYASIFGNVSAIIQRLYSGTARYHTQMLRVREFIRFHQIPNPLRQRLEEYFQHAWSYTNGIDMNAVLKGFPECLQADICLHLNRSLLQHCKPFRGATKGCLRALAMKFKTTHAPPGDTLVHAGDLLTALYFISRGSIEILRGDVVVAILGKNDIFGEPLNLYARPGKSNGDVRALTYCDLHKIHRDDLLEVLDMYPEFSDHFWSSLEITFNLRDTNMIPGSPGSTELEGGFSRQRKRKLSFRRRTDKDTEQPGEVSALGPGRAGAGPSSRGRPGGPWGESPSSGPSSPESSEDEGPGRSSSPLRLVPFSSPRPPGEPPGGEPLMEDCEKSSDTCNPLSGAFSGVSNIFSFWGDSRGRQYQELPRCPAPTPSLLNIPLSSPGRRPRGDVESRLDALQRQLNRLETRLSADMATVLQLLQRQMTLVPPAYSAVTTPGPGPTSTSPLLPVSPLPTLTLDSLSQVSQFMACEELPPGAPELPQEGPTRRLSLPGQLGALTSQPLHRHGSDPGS

Row | SMILES | hERG current change (%, negative = inhibition) at 1uM [%]
1 | Cc1ccccc1-n1c(=O)n(Cc2ccc(C(=O)O)cc2)c(=O)c2[nH]cnc21 | 10.5
2 | Cn1c(N)c(C(=O)COC(=O)CNS(=O)(=O)c2cccc(Cl)c2)c(=O)n(C)c1=O | 10.6
3 | CN1C(=O)/C(=C/c2ccccc2F)Sc2ccc(C(=O)N3CCCC3)cc21 | 8.75
4 | O=S(=O)(CC(CN1CCOCC1)N1CCOCC1)c1ccccc1 (stereo not drawn) | 6.43
5 | CC(OC(=O)CC1Sc2ccccc2NC1=O)C(=O)NC1CCCC1 (stereo not drawn) | 13.2
6 | O=C(Nc1nccs1)c1cc(S(=O)(=O)N2CCCCC2)ccc1Cl | 4.48
7 | CN(CC(=O)Nc1ccccc1Br)C(=O)c1ccc(-c2ccc(Cl)cc2)o1 | 8.46
8 | CCc1ccccc1N(CC(=O)NCC1CCCO1)C(=O)CCC(=O)Nc1nccs1 (stereo not drawn) | 14.2
9 | COc1ccc(OCc2n[nH]c(=S)n2N)cc1 | 14.4
10 | N#CCSc1nc2sc3c(c2c(=O)n1C1CCCCC1)CCCC3 | 3.79
11 | Cc1ccc(C(=O)O/N=C\c2ccc(N3CCCCC3)c([N+](=O)[O-])c2)cc1 | 14.4
12 | Cc1cccc2nc(COc3ccc4ccccc4c3Br)cn12 | 1.58
13 | O=c1[nH]c(=O)n(CCC2=CCCCC2)c(O)c1C=NCCCn1ccnc1 | -4.12
14 | Cc1cc(=O)n(CC(C)O)c(O)c1C#N (stereo not drawn) | 16.4
15 | COc1ccccc1N1CCN(Cc2cccc(OC)c2OC)CC1 | 10.8
16 | O=C(NCCCc1ccccc1)C(=O)NCC1OCCN1S(=O)(=O)c1cc(F)ccc1F (stereo not drawn) | 0.136
17 | CC(=O)c1c(N2CCCC2)nc(=S)n(-c2ccccc2)c1C | 6.02
18 | Cc1ccccc1Nc1nc(N)nc(COC(=O)/C=C/c2ccco2)n1 | 8.81
19 | Cc1cccn2c(=O)c3cc(C(=O)NC4CCCC4)c(=N)n(Cc4ccc(F)cc4)c3nc12 | -19.4

Row | SMILES | hERG current change (%, negative = inhibition) at 1uM [%]
20 | CCN(CC)c1ccc(C=N/C(C#N)=C(\N)C#N)cc1 | -8.05
21 | Cc1nn(-c2ccccc2)c(Cl)c1C(=O)NCc1ccccc1F | 20.5
22 | COc1ccc(/C=C2\CCC(C3CCCC3)C2=O)c(OC)c1OC (stereo not drawn) | 12.1
23 | O=C(COc1ccc(S(=O)(=O)N2CCCC2)cc1Cl)NCc1ccccn1 | 16.4
24 | C[C@H](NC(=O)N1CCn2c1nc1ccccc12)C(=O)NCC1CCCO1 (stereo partly drawn) | 20.3
25 | CC1=Nn2c(nnc2-c2cccs2)SC1 | -0.963
26 | CCOc1ccccc1CNC(=O)CCCC(=O)n1nc(C)c2ccccc21 | 14.2
27 | CCn1c(CSc2nc(C)cs2)nc2cc(S(=O)(=O)N(C)C)ccc21 | 6.55
28 | O=C(NC(=S)Nc1ccc(Br)cn1)c1cccs1 | 13.4
29 | Cc1cccnc1Sc1c([N+](=O)[O-])ncn1C | 10.1
30 | CCOC(=O)c1ccc2c(c1)n(CC)c(C)[n+]2CC.[I-] | 1.24
31 | CSc1ncc(Cl)c(C(=O)Nc2ccc(NC(C)=O)cc2)n1 | 3.73
32 | COc1ccc(CC(=O)NNC(=O)CCc2ccccc2)cc1 | 9.69
33 | CCCCn1nnnc1SCC(=O)Nc1cccc(C)n1 | -0.653
34 | O=C(CN1CCOCC1)N/N=C/c1cc2ccccc2nc1Cl | -2.96
35 | BrC(=C\c1ccccc1)/C=N/Nc1ccc2nncn2n1 | 1.99
36 | Nc1c(Cl)ncnc1NCc1cccnc1 | 14.9
37 | CCOC(=O)C1=C(C)NC(C)=C(C(=O)OCC)C1C(=O)OCC(=O)NC1(C#N)CCCCC1 | -7.23
38 | COc1ccc(NC(=O)Cn2nc(C(F)(F)F)c3c2CCCC3)cc1OC | -0.233

Row | SMILES | hERG current change (%, negative = inhibition) at 1uM [%]
39 | Cc1ccc(-c2nc3ccccc3o2)cc1NC(=O)c1ccc2c(c1)OCO2 | 4.56
40 | COc1ccc(CCN(C)C(=O)C2CCCN(C3CCN(Cc4ccccc4)CC3)C2)cc1OC (stereo not drawn) | 11.9
41 | O=C(N/N=C/c1ccc([N+](=O)[O-])s1)c1cccnc1 | 12
42 | O=C(Nc1ccc(Br)cc1Cl)NC1CC1 | 3.27
43 | CC(C)N(Cc1ccccc1)C(=S)NC(=O)C1(C)CC1(Cl)Cl (stereo not drawn) | 1.46
44 | O=C(O)CCCC(=O)Nc1nc2n(n1)C(c1ccc(F)cc1)CC(c1ccc(Cl)cc1)N2 (stereo not drawn) | 6.57
45 | Fc1ccccc1SCc1nnc(-c2ccccc2Br)o1 | 10.7
46 | Cc1ccc2c(c1)N(CCCC(=O)NCCCN1CCCC1=O)C(=O)CO2 | 0.168
47 | Cc1cc(C)c(C#N)c(SCc2nc3ccccc3[nH]2)n1 | -0.685
48 | CCOC(=O)c1nn(-c2ccc(C)cc2)cc1C(=O)c1ccccc1 | 10.7
49 | Cc1ccc(C(=O)NCC(=O)OCC(=O)c2ccccc2)s1 | -0.567
50 | NC(=O)CSc1nc2c(c(=O)n1-c1ccccc1)C1(CCCCC1)Cc1ccccc1-2 | 16.4
51 | O=C(O)C(=O)O.O=C(c1cccs1)N1CCN(Cc2cccc([N+](=O)[O-])c2)CC1 | -7.52
52 | Cc1ccc(NC(=O)CC(C)S(=O)(=O)c2ccc3c(c2)NC(=O)CO3)c(Cl)c1 (stereo not drawn) | 8.92
53 | COc1ccc(NC(=O)C2CCCN(S(=O)(=O)c3ccc(C)cc3)C2)cc1OC (stereo not drawn) | 21.2
54 | O=C(c1ccc(F)cc1)n1c(=S)nc2ccccn21 | 11
55 | CCOC(=O)c1c(NC(=O)CN2C(=O)NC(C)(c3ccccc3)C2=O)sc(C)c1C (stereo not drawn) | 10.1
56 | CCC(C)NC(=O)c1cc2c(=O)n3cccc(C)c3nc2s1 (stereo not drawn) | 11.8
57 | O=C(NCCc1c[nH]c2ccccc12)/C(=C/c1cccnc1)NC(=O)c1cccs1 | 9.36
